Data on one molecule can be found in patent US20140378657A1 (UTI LIMITED PARTNERSHIP, published 2014).

This experiment has as its target T1, β-lactamase-SBP fusion.
T1 construct: also called SBP-tagged β-lactamase
Briefly: SPR (BIAcoreX), β-lactamase-SBP amine-coupled to the chip. Background: In SPR one partner is held on a chip, and binding of the other changes the refractive index at the surface.

B1: streptavidin mutein SBPM18 (S27A, G48T) (designed binder)
chain: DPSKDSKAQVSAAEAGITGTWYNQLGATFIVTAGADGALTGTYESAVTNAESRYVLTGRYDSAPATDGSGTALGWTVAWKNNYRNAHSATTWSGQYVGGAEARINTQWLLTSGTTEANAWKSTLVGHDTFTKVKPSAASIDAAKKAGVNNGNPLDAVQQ
notes: Secreted from B. subtilis with the sacB signal peptide; tetramer in solution (64.5 kDa found, 66 kDa expected); In column experiments it was coupled to Affi-gel 15; also called Streptavidin SBPM18
For B1, binding was put at a Kd of 15.7 nM, the koff (commonly the first-order rate constant of dissociation) came out at 0.000711 s⁻¹ and the kon (commonly the second-order rate constant of association) was 45300 M⁻¹ s⁻¹.
